The results in this text go back to ChEMBL document CHEMBL4888484, “Replenishing the malaria drug discovery pipeline: Screening and hit evaluation of the MMV Hit Generation Library 1 (HGL1) against asexual blood stage Plasmodium falciparum ,using a nano luciferase reporter read-out” (2022).

The term % Inhibition denotes the drop in the measured response relative to a control, in per cent.

The campaign covered roughly 150,000 compounds. About 540 (0.36%) showed an effect of 50% or more. The list shows a part of the results.

The subject of the assay is Plasmodium falciparum. Description: Primary screen in NF54 nanoGlo assay, in single point, at 2uM, 72h; a lower Z score goes with more inhibition. In kind it is functional, Erythrocyte. The settings on record: timepoint 72 hour.
Consider `c1ccc(CN2CCCC3CN(CCn4ccnc4)CCC32)cc1` (configuration not stated), for which the “% Inhibition” value came out at 2% and the Z score is recorded as -0.18.
The like results for `COc1ccc(S(=O)(=O)N2CCOCC2)cc1NC(=O)C1CC(=O)N(C2CCCC(C)C2C)C1` (configuration not stated) were, in that order, 9% and -1.17.
Consider `Cc1noc2ncc(NC(=O)C(=O)NCCCc3ccccc3)cc12`, for which the “% Inhibition” value is on record as -5% and the Z score was 0.64.
With `Cc1nc(-c2cccc(NC(=O)c3cnn4c3OCCC4)c2)cs1`, the “% Inhibition” value is recorded as -4% and the Z score amounted to 0.65.
On the same counts, the results for `CCCOc1ccc(C(=O)N2CCN(c3ccc(NC(=O)c4ccc(OCc5ccccc5)cc4)cc3Cl)CC2)cc1` are -3% and 0.53.
With `Cc1nc(C(=O)Nc2cc(CC(C)(C)C)n[nH]2)c(=O)[nH]c1C`, the “% Inhibition” value is reported as -4% and the Z score was determined as 0.66.
The like results for `O=C(CCc1ccccc1)c1cccnc1` were, in that order, 2% and -0.24.
The like results for `Cn1nc2c(c1CNC(=O)c1ccc(=O)[nH]n1)CCC2` were, in that order, 21% and -2.66.
For the compound `CS(=O)(=O)N1CC[C@H]2CN(C(=O)c3ccc4ncccc4c3)C[C@@]2(CF)C1`, the “% Inhibition” value was 1% and the Z score is listed as -0.17.
Regarding `CCN1Cc2cccc(CNc3ccc(C)c(Cl)c3)c2C1`, the “% Inhibition” value is on record as -5% and the Z score is 0.86.
On the same counts, the results for `CCS(=O)(=O)N(C)Cc1cc(F)ccc1Cl` are 6% and -0.61.
As to `Cc1ccc(S(=O)(=O)N2CCN=C2N2CCN(C)CC2)c(C)c1`, the “% Inhibition” value is -6% and the Z score is 1.18.
On the same counts, the results for `CNc1nc(N[C@H]2CC(C)(C)Cc3nc(N4CCOCC4)ncc32)ncc1F` are -8% and 1.51.
The like results for `CCC(=O)Nc1cnc(OC)nc1OC` were, in that order, -9% and 1.63.
For the compound `CO[C@H]1CNC[C@@H]1NC(=O)Nc1ccc(Cl)cc1Cl`, the “% Inhibition” value was -8% and the Z score came to 1.03.
The like results for `Cc1nc(C(=O)Nc2c(F)cccc2NC(=O)OC(C)(C)C)co1` were, in that order, 8% and -1.05.
The like results for `CCCNC(=O)[C@H](C)NC(=O)c1cc2n(n1)CCCN(Cc1ccccc1)C2=O` were, in that order, -1% and 0.12.
The like results for `CC(C)(C)c1nnc(Cn2cnc3c2CCCC3)o1` were, in that order, -10% and 1.86.
Consider `Clc1cccc(C2=Nc3ccc(Br)cc3C(c3cccc(Cl)c3)=Nc3ccc(Br)cc32)c1`, for which the “% Inhibition” value is 6% and the Z score is -0.57.
On the same counts, the results for `O=C1C[C@H](Nc2ccc3c(c2)OCO3)C(=O)N1Cc1ccccc1` are -10% and 1.96.
In the case of `CS(=O)(=O)NCCOC(=O)c1c(F)cccc1F`, the “% Inhibition” value is -5% and the Z score was found to be 0.87.
Turning to `O=C([C@H]1CCS(=O)(=O)C1)N1CCC2(CCCCC2)C1`, the “% Inhibition” value came out at 28% and the Z score is recorded as -3.76.
For `O=C(NCC(c1ccco1)c1ccco1)c1ccccc1`, the “% Inhibition” value is on record as -2% and the Z score came to 0.31.
`CC(C)(C)C(NC1CCN2CCCC2C1)c1ccc(F)cc1` (configuration not stated): the “% Inhibition” value is 2% and the Z score is -0.3.
On the same counts, the results for `NC(=O)Nc1ccc(-c2csc(C3(NC(=O)c4ccccc4)CCCC3)n2)cc1` are -2% and 0.22.
On the same counts, the results for `Brc1cc(Br)c2nc(-c3cnccn3)ccc2c1` are 33% and -4.31.
On the same counts, the results for `Cc1nc(CC(=O)N2CCCN(C(=O)[C@@H]3CCCO3)CC2)cs1` are -8% and 0.76.
In the case of `Cc1ncccc1Oc1ncnc(N2CCC(NS(C)(=O)=O)CC2)c1C`, the “% Inhibition” value is given as -5% and the Z score came to 1.
In the case of `O=C(NCc1cccnn1)N1CCC[C@H]1C(F)F`, the “% Inhibition” value is given as -4% and the Z score came out at 0.51.
The like results for `COc1ccc(Cn2c(N)c(C#N)c3c2CCCC3)cc1` were, in that order, -2% and 0.35.
As to `COCCOc1ccc(N[C@@H](C)c2nnc(C)o2)cc1Cl`, the “% Inhibition” value is -22% and the Z score is reported as 2.05.
On the same counts, the results for `COc1ccc(NC(=O)C2(N(Cc3ccccc3)C(=O)Cc3ccccc3)CCC3Cc4ccccc4CC3C2)c(OC)c1` (configuration not stated) are -35% and 4.1.
On to `COc1cc(C2CN(C(=O)NC(C)(C)C)CC2C(=O)N2CCOCC2)cc(OC)c1OC` (configuration not stated), for which the “% Inhibition” value is on record as -6% and the Z score came to 0.71.
Turning to `CCOC(=O)[C@@H]1CCCCN1c1cc(CCN)nc(C)n1`, the “% Inhibition” value was -5% and the Z score is reported as 1.01.
On the same counts, the results for `c1ccc(-c2nnn(Cn3nnc(-c4ccccc4)n3)n2)cc1` are -46% and 5.37.
The like results for `C[C@H]1CCc2c(sc(NC(=O)CN3CCN(Cc4ccc(Cl)s4)CC3)c2C#N)C1` were, in that order, -4% and 0.82.
Turning to `NC(=O)[C@H]1CCCN(C(=O)CC2CCCC2)C1`, the “% Inhibition” value amounted to 4% and the Z score is given as -0.47.
On the same counts, the results for `CCc1cccc(NC(=O)c2cc(S(=O)(=O)N3CCCCCC3)cn2C)c1` are -2% and 0.39.
On the same counts, the results for `NC[C@H](c1nc(CS(=O)(=O)C2CC2)no1)C1CCCCCC1` are 2% and -0.28.
`O=C(O)c1ccc(NS(=O)(=O)c2ccc3ncccc3c2)c(O)c1`: the “% Inhibition” value was -3% and the Z score amounted to 0.56.
On the same counts, the results for `Cc1ocnc1C(=O)N[C@@H]1COC2(CCCCC2)C1` are -7% and 1.19.
`COC[C@]1(S(=O)(=O)NCCNc2ccccc2)C[C@@H]1C`: the “% Inhibition” value was -6% and the Z score is reported as 0.98.
For `O=S(=O)(c1ccc(F)cc1)N1c2cc(Cl)ccc2Oc2nc3ccccc3nc21`, the “% Inhibition” value is recorded as 8% and the Z score is listed as -1.45.
On to `Cc1cc(Cl)ccc1N1C(=O)N[C@@H](Cc2c[nH]c3ccc(Br)cc23)C1=O`, for which the “% Inhibition” value is reported as -9% and the Z score is listed as 0.84.
The like results for `Cc1ccc(C)c(-c2cc(C(=O)N[C@H](C(=O)NC3CC3)C(C)C)no2)c1` were, in that order, -7% and 0.9.
`CCCn1cnc2c1c(=O)n(CC1CC1)c(=O)n2-c1cccc(OC)c1`: the “% Inhibition” value is reported as -6% and the Z score came to 0.91.
On the same counts, the results for `O=C1CCC(=O)N1C1CN(S(=O)(=O)c2cc(F)ccc2F)C1` are 3% and -0.3.
Regarding `CC(=O)N[C@H]1CCN(C(=O)[C@H]2Cc3ccc(cc3)Oc3cccc(c3)C(=O)N[C@@H](CC(C)C)C(=O)N2)C1`, the “% Inhibition” value was -11% and the Z score was 2.15.
On the same counts, the results for `CC[C@H](C)N(Cc1ccc(OS(=O)(=O)CC)cc1)C(=O)C1CCCC1` are 0% and -0.01.
For the compound `O=C(O)c1ccc(NC2=NCCC2)cc1`, the “% Inhibition” value was -11% and the Z score stood at 1.6.
As to `CC(NC(CC1CCC1)c1ccccc1)c1cnn(C)n1` (configuration not stated), the “% Inhibition” value is recorded as -5% and the Z score came out at 0.78.
On the same counts, the results for `CCCCc1nc(Cn2nc3cnccn3c2=O)cs1` are 2% and -0.25.
In the case of `C[C@H]1COc2ccccc2N1CC(=O)NCc1ccco1`, the “% Inhibition” value was -8% and the Z score was found to be 0.89.
`CC(NC(=O)NCC(c1ccco1)N1CCCC1)c1ccncc1` (configuration not stated): the “% Inhibition” value is -11% and the Z score was determined as 1.46.
`Cc1c(Br)cncc1NC(=O)N1CCCc2n[nH]cc21`: the “% Inhibition” value is reported as -12% and the Z score was determined as 1.29.
The like results for `COCC1(NCc2cc(OC)ccc2F)CCC1` were, in that order, 3% and -0.47.
On to `CCc1ccc(NC(=O)CNC(C)=O)cc1CC`, for which the “% Inhibition” value was determined as 16% and the Z score is -1.86.
For the compound `CCc1occc1-c1nc(Cc2cccnc2)no1`, the “% Inhibition” value was -11% and the Z score was 2.21.
On the same counts, the results for `CC(C)(C)OC(=O)N1CCC(N(Cc2ccccn2)C(=O)c2ccccc2)CC1` are 2% and -0.4.
As to `COc1ccccc1N(C)CC(=O)c1c[nH]c2ccccc12`, the “% Inhibition” value is given as -4% and the Z score worked out at 0.53.
On to `O[C@@H]1C[C@@H](c2nc(Cc3ccc(F)cc3Cl)no2)N(C2CCCCC2)C1`, for which the “% Inhibition” value was 16% and the Z score is -1.82.
The like results for `CC(C)(C)c1cc(CN2CCC(CCC(=O)NCc3cccnc3)CC2)n[nH]1` were, in that order, -9% and 1.37.
On the same counts, the results for `CNc1ccnc(N2CCC[C@H](Cn3ccnc3)C2)n1` are -5% and 0.63.
On the same counts, the results for `O=C(Nc1ccccc1OC[C@H]1CCCO1)c1cnc(C2CC2)nc1` are -5% and 0.85.
`O=C1NCC(C(=O)N2CCCC2c2ccc3c(c2)OCCO3)N1` (configuration not stated): the “% Inhibition” value was determined as 6% and the Z score was -1.08.
Consider `CNC[C@H]1CCCN1C(=O)c1[nH]nc(C(C)C)c1Br`, for which the “% Inhibition” value was found to be 0% and the Z score is recorded as -0.03.
On the same counts, the results for `Cc1cc(S(=O)(=O)N2CCC3(CCC(=O)N3Cc3c(C)noc3C)CC2)ccc1F` are 9% and -1.14.
With `CC(CC(O)c1ccco1)Nc1cncc(Br)c1` (configuration not stated), the “% Inhibition” value is given as -7% and the Z score is listed as 0.99.
With `Cc1nc(CN(Cc2ccncc2)Cc2ccc(C)s2)c[nH]1`, the “% Inhibition” value is on record as -8% and the Z score was 1.04.
The like results for `C[C@]1(c2cccc(F)c2)CCN(Cc2cn[nH]c2)C1` were, in that order, -9% and 0.79.
In the case of `Cc1nnc2ccc(NC3CC=CC3)nn12`, the “% Inhibition” value is -12% and the Z score stood at 1.71.
For `Cn1ncnc1[C@@H](NC(=O)CCCOc1ccccc1)C1CC1`, the “% Inhibition” value is listed as -13% and the Z score is given as 2.03.
Consider `CCOc1ccc(-c2cc3nc(C4CCN(C(=O)OC(C)(C)C)CC4)c(C(=O)Nc4ccc(Br)c(C)c4)cn3n2)cc1`, for which the “% Inhibition” value was -1% and the Z score is listed as 0.08.
`CO[C@@H]1CC[C@@]2(OC)CCN(C(=O)c3cccc4cc(C)oc34)[C@H]2C1`: the “% Inhibition” value came out at 3% and the Z score is given as -0.34.
With `CCc1nocc1CN1CCO[C@H](c2cccs2)C1`, the “% Inhibition” value is listed as -8% and the Z score is 1.19.
For the compound `Cc1cc(NC(=O)[C@@H]2CCCN2C(=O)c2cccs2)sn1`, the “% Inhibition” value is reported as -2% and the Z score is 0.31.
Take `CCc1nocc1CN(C)C(=O)[C@@H]1CCCCC(=O)N1`: the “% Inhibition” value was found to be 2% and the Z score was -0.27.
In the case of `CN(C)c1cc(C(=O)Nc2c(O)cccc2F)ccn1`, the “% Inhibition” value is recorded as -12% and the Z score was 1.81.
Take `Cc1ccccc1NC(=O)Nc1ccc(-n2nc(OCc3ccc(F)cc3)nc2-c2ccc(C(F)(F)F)cc2)cc1`: the “% Inhibition” value is listed as -13% and the Z score is given as 1.47.
On to `O=C(Cn1ncnn1)NCCc1ccc(Br)cc1Cl`, for which the “% Inhibition” value is listed as -21% and the Z score came to 2.75.
Turning to `Cc1noc(OCCc2ccccc2)n1`, the “% Inhibition” value worked out at 32% and the Z score is -1.07.
As to `Cc1ccsc1CN(CCC(N)=O)C(C)C`, the “% Inhibition” value is reported as -12% and the Z score is 1.56.
On the same counts, the results for `Cc1ccc2ncccc2c1-c1cc(C2CC2)ncn1` are -10% and 1.35.
For `Cn1cc(NC(=O)c2sccc2S(=O)(=O)N2CCc3ccccc3C2)cn1`, the “% Inhibition” value came out at 0% and the Z score was 0.03.
As for `COCCNC(=O)CN(C)C(=O)c1ccc(Cl)cc1F`, the “% Inhibition” value is listed as -10% and the Z score was 0.81.
The like results for `C[C@H](NS(C)(=O)=O)c1nc(C2CCCC2)nn1CCc1ccccc1` were, in that order, -33% and 2.9.
